# In the BET-seq Pho4 binding data (Le et al. 2018):
# This is one part of the list. These are noisy estimates, calculated here from bound and input reads.
# Biological target: T1, Pho4 (S. cerevisiae) (UniProt P07270)
# T1 sequence: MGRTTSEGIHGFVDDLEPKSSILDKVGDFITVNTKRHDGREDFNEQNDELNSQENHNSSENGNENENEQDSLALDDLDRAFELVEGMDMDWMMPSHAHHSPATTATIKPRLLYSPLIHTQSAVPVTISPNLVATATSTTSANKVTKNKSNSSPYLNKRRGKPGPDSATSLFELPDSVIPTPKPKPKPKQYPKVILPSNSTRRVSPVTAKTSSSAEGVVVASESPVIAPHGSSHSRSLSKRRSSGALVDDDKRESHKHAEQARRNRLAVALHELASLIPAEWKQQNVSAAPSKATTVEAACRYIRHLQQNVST
# Assay: relative binding free energy (BET-seq); higher = weaker binding
# Conditions: reference: library average
row,Sequence,relative binding free energy [kcal/mol]
1,ATAAACACGTGGCGTT,-0.02
2,GCGGTCACGTGCGTGA,0.08
3,AGCGCCACGTGGCGGG,-0.18
4,GGTAACACGTGTATTG,0.13
5,ATGGGCACGTGGGCTC,-0.29
6,AGTGACACGTGAATTG,0.22
7,CACGGCACGTGGGGAT,-0.04
8,GTGTTCACGTGTACTT,0.31
9,AATGACACGTGAGGGG,0.1
10,TGTAACACGTGAATAT,0.3
11,CGAATCACGTGGAGGG,0.16
12,ATTGGCACGTGGTCCT,-0.2
13,AAGGTCACGTGGACGG,0.07
14,AGAGTCACGTGTACTT,0.14
15,AGGGCCACGTGGATTT,0.05
16,GTCATCACGTGGGGAA,0.2
17,CTTGCCACGTGAGATG,0.3
18,TACGTCACGTGTTTGT,0.05
19,GAGCTCACGTGCGGGG,0.18
20,TGCGGCACGTGGTTAT,-0.18
21,TTTCTCACGTGGGTCG,0.27
22,TGGATCACGTGAGGCG,0.32
23,CAATGCACGTGGGGAG,-0.09
24,CGAATCACGTGATGGT,0.17
25,AGTTACACGTGTATAA,0.11

row,Sequence,relative binding free energy [kcal/mol]
1,TGTTCCACGTGTCTGT,-0.13
2,GATAACACGTGGTTAG,-0.01
3,GATGTCACGTGCGGTG,0.14
4,ATTTTCACGTGGGTTT,0.21
5,TTTCGCACGTGAATAA,0.34
6,GATGTCACGTGATCTG,0.26
7,TGTAACACGTGTGCTT,0.05
8,TTGGGCACGTGATCGG,-0.06
9,AAAATCACGTGTTGTT,0.18
10,CTGTGCACGTGGAGAG,-0.18
11,GGGCACACGTGGAGTA,0.11
12,ATTACCACGTGGTATT,0.02
13,CGTTGCACGTGCGCGG,-0.19
14,AGTAACACGTGGATAG,0.05
15,TAAATCACGTGGGGCT,-0.11
16,AGCTGCACGTGTTGGA,0.03
17,GTTGACACGTGACAGG,0.2
18,GTGGCCACGTGTTTTT,0.2
19,GAAGGCACGTGAGGTC,0.18
20,GATTGCACGTGGTTAA,0.13
21,GGTTGCACGTGTGCAC,0.1
22,GATATCACGTGGGGGC,0.09
23,TGCTTCACGTGTAGTG,0.19
24,TTGGCCACGTGGTGGT,-0.08
25,GTGCGCACGTGCTGAG,-0.1

row,Sequence,relative binding free energy [kcal/mol]
1,TTTGGCACGTGTATCT,-0.05
2,AGAATCACGTGTATAT,0.27
3,CAGGACACGTGAGTGG,0.22
4,GTTTTCACGTGAGAAT,0.49
5,TACGGCACGTGTGGTA,-0.13
6,ATTGCCACGTGTTGAT,0.01
7,GAAGACACGTGGTGGT,0.01
8,ATTGCCACGTGAGAGT,0.11
9,AAGGTCACGTGTATGG,0.16
10,AATGACACGTGTATTT,0.1
11,TGTCGCACGTGGGCGG,-0.27
12,TTCTGCACGTGATTAG,0.07
13,GGTCCCACGTGTAGGG,-0.03
14,TACGTCACGTGGAGAG,0.13
15,GTAAGCACGTGATTGA,0.15
16,GGATTCACGTGAGGGC,0.43
17,TTATTCACGTGTATAA,0.31
18,AAGTGCACGTGGTCAT,-0.13
19,TTGTGCACGTGAATAA,0.26
20,CTGAGCACGTGATTTG,0.09
21,TTAATCACGTGAGTAT,0.4
22,GAATACACGTGAGGTT,0.34
23,ACGGGCACGTGGGTGT,-0.28
24,TATTACACGTGGGATA,0.16
25,TTTTCCACGTGTCTTA,0.19

row,Sequence,relative binding free energy [kcal/mol]
1,CTCGTCACGTGTGGTC,0.23
2,TCGGGCACGTGAGGTT,0.11
3,AGGTGCACGTGGGTAC,-0.23
4,GCGGTCACGTGATATT,0.29
5,TCGGACACGTGTTGTT,-0.09
6,AAGGTCACGTGTGGTA,0.19
7,GTTGACACGTGGTTCA,-0.03
8,GTTGTCACGTGTGCAT,0.13
9,GGTATCACGTGCGGGC,0.23
10,CTGATCACGTGGAAGG,0.18
11,GTTTTCACGTGCGTGC,0.24
12,ATTATCACGTGAAGCG,0.28
13,TTTGCCACGTGTGTAA,-0.15
14,AAGTGCACGTGGAGTT,0.03
15,TGGGGCACGTGTATTC,0.04
16,TAGAACACGTGGGTGT,-0.19
17,GGTGACACGTGGCAGA,0.04
18,TTTTACACGTGATTCG,0.32
19,GGGTACACGTGGGAGC,-0.1
20,TGTTACACGTGGTGTT,0.02
21,TATTTCACGTGTTTCT,0.19
22,GTTCTCACGTGGGCGG,0.15
23,TAGTTCACGTGGGCCG,0.19
24,ATAGTCACGTGGGCGA,-0.09
25,GGAATCACGTGACGTG,0.32

row,Sequence,relative binding free energy [kcal/mol]
1,CAGGCCACGTGTGGTG,-0.1
2,GTGGTCACGTGCGTCG,0.02
3,GGAGTCACGTGATTGG,0.39
4,ATTCACACGTGGTTTT,-0.03
5,TATCACACGTGGGGTA,-0.1
6,GCGTGCACGTGTATTA,0.06
7,GGTCGCACGTGAGCGG,0.11
8,TTCGTCACGTGTGTTT,0.18
9,AGTGTCACGTGGTGGC,-0.05
10,TTTTGCACGTGTATCA,0.08
11,TGCTACACGTGGTGTA,-0.01
12,TGGGGCACGTGATCTT,-0.03
13,CTATGCACGTGGGTCG,-0.13
14,GTTTACACGTGATGAT,0.26
15,AGGTGCACGTGTAGGC,-0.01
16,TATGGCACGTGGGCAT,-0.17
17,GATTGCACGTGGTCAG,-0.13
18,ATGTACACGTGAATTG,0.19
19,TAGGCCACGTGTTAGT,-0.08
20,TGCTTCACGTGATAGT,0.23
21,CTTGGCACGTGGTTTA,-0.08
22,ACGGACACGTGTGGTG,-0.1
23,TTAGGCACGTGAATGT,0.07
24,TAAGTCACGTGTACTG,0.26
25,AGTGGCACGTGGTAAG,-0.15

row,Sequence,relative binding free energy [kcal/mol]
1,TGTCACACGTGGTCGT,0.06
2,CCTCGCACGTGGGGGT,-0.21
3,TGAATCACGTGGATTG,0.04
4,AGTTGCACGTGATGTA,0.06
5,ACGGTCACGTGTGAGT,0.12
6,GTGTCCACGTGTGAGG,0.16
7,TTGTACACGTGGTGTC,-0.07
8,AGGATCACGTGGGTTT,0.08
9,TGTCTCACGTGAGGTT,0.42
10,GGGCGCACGTGCGAGG,-0.13
11,GCTTGCACGTGGTCGG,-0.07
12,AGAAGCACGTGAAGTT,0.28
13,TCATGCACGTGGCGGT,-0.09
14,TGTCACACGTGGGGTG,-0.1
15,TCTATCACGTGTGGTA,-0.03
16,CAAGTCACGTGGATGG,0.1
17,ACTGGCACGTGTAATG,0.08
18,GATGACACGTGGGGCT,0.02
19,TACTTCACGTGGGCTG,0.27
20,AGGGGCACGTGTATCT,0.02
21,AATTGCACGTGTCGTT,0.05
